According to the supplement of paper PMC8728848:
This is one part of the list.

Key:
Test in all cases: glycan array binding signal (z-score within array); higher = stronger binding
Conditions in all cases: glycan notation: IUPAC condensed, linker removed
[1] = biological target: Gal(b1-4)GlcNAc(b1-3)Gal(b1-4)GlcNAc(b1-3)[Gal(b1-4)GlcNAc(b1-3)Gal(b1-4)GlcNAc(b1-6)]GalNAc
Summary of the method: (§1)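 Glycan array data came from 3228 arrays in the Consortium for Functional Glycomics database, and only arrays with an available protein sequence were kept. Glycan names were put into IUPAC-condensed notation, and columns mapping to the same glycan were averaged. The binding signal is a within-array Z-score, averaged across arrays of one protein sequence run at different concentrations or buffers and across linkers. A negative Z-score can be read as non-binding.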

[2] = biological target: Gal(b1-4)GlcNAc(b1-3)Gal(b1-4)GlcNAc(b1-6)[Gal(b1-3)]GalNAc
Summary of the method: as §1

[3] = biological target: Gal(b1-4)GlcNAc(b1-3)Gal(b1-4)[Fuc(a1-3)]GlcNAc(b1-3)Gal(b1-4)[Fuc(a1-3)]GlcNAc
Summary of the method: as §1

[4] = biological target: Gal(b1-4)GlcNAc(b1-3)GalNAc
Summary of the method: as §1

[5] = biological target: Gal(b1-4)GlcNAc(b1-3)[Fuc(a1-3)GlcNAc(b1-6)]Gal(b1-4)Glc
Summary of the method: as §1

[6] = biological target: Gal(b1-4)GlcNAc(b1-3)[Gal(b1-4)GlcNAc(b1-6)]Gal(b1-4)GlcNAc
Summary of the method: as §1

[7] = biological target: Gal(b1-4)GlcNAc(b1-3)[GlcNAc(b1-6)]Gal(b1-4)GlcNAc
Summary of the method: as §1

[8] = biological target: Gal(b1-4)GlcNAc(b1-6)Gal(b1-4)GlcNAc
Summary of the method: as §1

[9] = biological target: Gal(b1-4)GlcNAc(b1-6)GalNAc
Summary of the method: as §1

[10] = biological target: Gal(b1-4)GlcNAc(b1-6)[Gal(b1-3)]GalNAc
Summary of the method: as §1

[11] = biological target: Gal(b1-4)GlcNAc(b1-6)[Gal(b1-4)GlcNAc(b1-3)]GalNAc
Summary of the method: as §1

[12] = biological target: Gal(b1-4)GlcNAc6P
Summary of the method: as §1

[13] = biological target: Gal(b1-6)Gal
Summary of the method: as §1

[14] = biological target: Gal3S(b1-3)GalNAc
Summary of the method: as §1

[15] = biological target: Gal3S(b1-3)GlcNAc
Summary of the method: as §1

[16] = biological target: Gal3S(b1-3)[Fuc(a1-4)]GlcNAc
Summary of the method: as §1

[17] = biological target: Gal3S(b1-4)Glc
Summary of the method: as §1

[18] = biological target: Gal3S(b1-4)Glc6S
Summary of the method: as §1

[19] = biological target: Gal3S(b1-4)GlcNAc
Summary of the method: as §1

[20] = biological target: Gal3S(b1-4)[Fuc(a1-3)]Glc6S
Summary of the method: as §1

[21] = biological target: Gal3S(b1-4)[Fuc(a1-3)]GlcNAc
Summary of the method: as §1

[22] = biological target: Gal3S(b1-4)[Fuc(a1-3)]GlcNAc6S
Summary of the method: as §1

[23] = biological target: Gal3S4S(b1-4)GlcNAc
Summary of the method: as §1

[24] = biological target: Gal3S6S(b1-4)GlcNAc
Summary of the method: as §1

[25] = biological target: Gal3S6S(b1-4)GlcNAc6S
Summary of the method: as §1

[26] = biological target: Gal4S(b1-4)GlcNAc
Summary of the method: as §1

[27] = biological target: Gal4S6S(b1-4)GlcNAc
Summary of the method: as §1

[28] = biological target: Gal6P(b1-4)GlcNAc
Summary of the method: as §1

[29] = biological target: Gal6S(b1-3)GlcNAc
Summary of the method: as §1

[30] = biological target: Gal6S(b1-3)GlcNAc6S
Summary of the method: as §1

[31] = biological target: Gal6S(b1-4)Glc
Summary of the method: as §1

[32] = biological target: Gal6S(b1-4)Glc6S
Summary of the method: as §1

[33] = biological target: Gal6S(b1-4)GlcNAc
Summary of the method: as §1

[34] = biological target: Gal6S(b1-4)GlcNAc6S
Summary of the method: as §1

[35] = biological target: GalNAc(a1-3)Gal
Summary of the method: as §1

[36] = biological target: GalNAc(a1-3)GalNAc
Summary of the method: as §1

[37] = biological target: GalNAc(a1-3)GalNAc(b1-3)Gal(a1-4)Gal(b1-4)Glc
Summary of the method: as §1

[38] = biological target: GalNAc(a1-3)GalNAc(b1-3)Gal(a1-4)Gal(b1-4)GlcNAc
Summary of the method: as §1

[39] = biological target: GalNAc(b1-3)Gal
Summary of the method: as §1

[40] = biological target: GalNAc(b1-3)Gal(a1-4)Gal(b1-4)GlcNAc
Summary of the method: as §1

[41] = biological target: GalNAc(b1-3)Gal(a1-4)Gal(b1-4)GlcNAc(b1-3)Gal(b1-4)Glc
Summary of the method: as §1

[42] = biological target: GalNAc(b1-3)Gal(a1-6)Gal(b1-4)Glc
Summary of the method: as §1

[43] = biological target: GalNAc(b1-3)GalNAc
Summary of the method: as §1

[44] = biological target: GalNAc(b1-3)GlcNAc
Summary of the method: as §1

[45] = biological target: GalNAc(b1-4)Gal(b1-4)Glc
Summary of the method: as §1

B1: PhoSpL (Pholiota squarrosa) (peptide)
chain: APVPVTKLVCDGDTYKCTAYLDFGDGRWVAQWDTNVFHTG
glycan array binding signal (z-score) [1]: 0.619
glycan array binding signal (z-score) [2]: 0.549
glycan array binding signal (z-score) [3]: -0.394
glycan array binding signal (z-score) [4]: -0.135
glycan array binding signal (z-score) [5]: -0.241
glycan array binding signal (z-score) [6]: -0.284
glycan array binding signal (z-score) [7]: 0.477
glycan array binding signal (z-score) [8]: -0.064
glycan array binding signal (z-score) [9]: -0.065
glycan array binding signal (z-score) [10]: -0.398
glycan array binding signal (z-score) [11]: -0.473
glycan array binding signal (z-score) [12]: -0.747
glycan array binding signal (z-score) [13]: -0.217
glycan array binding signal (z-score) [14]: -0.131
glycan array binding signal (z-score) [15]: 0.237
glycan array binding signal (z-score) [16]: -0.222
glycan array binding signal (z-score) [17]: 0.256
glycan array binding signal (z-score) [18]: -0.159
glycan array binding signal (z-score) [19]: 0.134
glycan array binding signal (z-score) [20]: 0.256
glycan array binding signal (z-score) [21]: 0.145
glycan array binding signal (z-score) [22]: 0.305
glycan array binding signal (z-score) [23]: -0.026
glycan array binding signal (z-score) [24]: 0.482
glycan array binding signal (z-score) [25]: 0.329
glycan array binding signal (z-score) [26]: -0.422
glycan array binding signal (z-score) [27]: -0.269
glycan array binding signal (z-score) [28]: 0.354
glycan array binding signal (z-score) [29]: -0.149
glycan array binding signal (z-score) [30]: 0.396
glycan array binding signal (z-score) [31]: -0.227
glycan array binding signal (z-score) [32]: -0.687
glycan array binding signal (z-score) [33]: 0.078
glycan array binding signal (z-score) [34]: -0.652
glycan array binding signal (z-score) [35]: 0.154
glycan array binding signal (z-score) [36]: 0.004
glycan array binding signal (z-score) [37]: -0.618
glycan array binding signal (z-score) [38]: 0.539
glycan array binding signal (z-score) [39]: -0.301
glycan array binding signal (z-score) [40]: 0.249
glycan array binding signal (z-score) [41]: 0.204
glycan array binding signal (z-score) [42]: -0.18
glycan array binding signal (z-score) [43]: 0.085
glycan array binding signal (z-score) [44]: -0.197
glycan array binding signal (z-score) [45]: -0.088
